Reference: PMC4163657
Results are given in words; binding and its absence hold for the method and conditions named. Binding seen in cells or lysates may run through a third protein. Some binding calls cover weakened binding; strength is not graded here. For some of these results: Tags and fused reporters may be left off the sequences shown.

The chains behind the UniProt entries cited, without tags or fusion partners. Where a name states a change or a piece, a line headed by the entry shows the natural chain unless it says otherwise.
UniProt Q6PHN9: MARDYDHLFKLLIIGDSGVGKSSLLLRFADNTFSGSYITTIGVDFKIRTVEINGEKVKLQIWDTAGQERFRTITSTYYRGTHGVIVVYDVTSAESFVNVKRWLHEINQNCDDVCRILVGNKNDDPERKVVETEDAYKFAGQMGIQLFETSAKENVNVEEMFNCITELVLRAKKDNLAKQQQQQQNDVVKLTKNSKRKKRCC
UniProt Q8BGT6: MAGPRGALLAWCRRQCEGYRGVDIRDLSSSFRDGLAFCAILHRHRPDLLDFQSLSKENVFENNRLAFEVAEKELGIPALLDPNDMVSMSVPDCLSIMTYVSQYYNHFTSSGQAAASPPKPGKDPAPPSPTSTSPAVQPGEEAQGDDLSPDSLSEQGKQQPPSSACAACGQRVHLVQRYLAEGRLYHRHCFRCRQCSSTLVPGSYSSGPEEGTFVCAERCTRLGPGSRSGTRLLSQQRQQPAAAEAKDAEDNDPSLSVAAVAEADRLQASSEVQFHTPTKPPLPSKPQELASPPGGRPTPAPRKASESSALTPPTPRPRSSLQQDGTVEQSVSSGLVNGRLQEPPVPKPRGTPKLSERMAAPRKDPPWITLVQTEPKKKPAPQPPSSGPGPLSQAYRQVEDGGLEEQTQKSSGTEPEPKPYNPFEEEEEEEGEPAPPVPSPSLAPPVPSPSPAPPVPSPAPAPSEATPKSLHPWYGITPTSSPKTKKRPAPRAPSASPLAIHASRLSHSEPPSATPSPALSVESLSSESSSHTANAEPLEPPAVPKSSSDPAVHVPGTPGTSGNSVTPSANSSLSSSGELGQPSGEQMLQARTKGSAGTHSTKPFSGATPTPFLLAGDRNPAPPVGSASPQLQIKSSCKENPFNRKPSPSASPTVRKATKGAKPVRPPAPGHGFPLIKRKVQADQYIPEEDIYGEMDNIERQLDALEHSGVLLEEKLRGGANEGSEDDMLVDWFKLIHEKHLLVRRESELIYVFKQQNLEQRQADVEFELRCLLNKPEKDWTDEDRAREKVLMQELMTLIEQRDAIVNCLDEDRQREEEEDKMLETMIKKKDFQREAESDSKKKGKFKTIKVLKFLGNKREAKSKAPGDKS
UniProt P62821: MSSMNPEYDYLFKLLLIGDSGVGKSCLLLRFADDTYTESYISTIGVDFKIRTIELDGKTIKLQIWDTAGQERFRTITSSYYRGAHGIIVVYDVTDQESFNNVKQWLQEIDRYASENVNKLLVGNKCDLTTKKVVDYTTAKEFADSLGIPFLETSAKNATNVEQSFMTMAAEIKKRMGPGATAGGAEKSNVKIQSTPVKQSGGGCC
UniProt P55258: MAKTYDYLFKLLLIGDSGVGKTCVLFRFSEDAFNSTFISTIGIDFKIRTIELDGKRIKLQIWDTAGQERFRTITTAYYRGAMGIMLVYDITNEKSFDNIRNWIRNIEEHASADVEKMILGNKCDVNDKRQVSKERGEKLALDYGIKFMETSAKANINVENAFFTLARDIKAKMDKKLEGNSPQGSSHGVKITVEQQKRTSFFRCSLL
UniProt P61028: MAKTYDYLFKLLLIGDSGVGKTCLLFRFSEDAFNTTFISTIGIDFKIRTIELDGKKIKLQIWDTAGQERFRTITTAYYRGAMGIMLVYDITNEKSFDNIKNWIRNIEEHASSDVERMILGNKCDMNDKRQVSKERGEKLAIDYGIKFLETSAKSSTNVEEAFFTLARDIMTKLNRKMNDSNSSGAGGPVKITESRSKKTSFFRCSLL

Assays:
[1] = target: HA–Rab35-Q67L (mouse) (UniProt Q6PHN9); assay: co-IP; HA–Rab35-Q67L from COS-7 lysate held on anti-HA agarose beads, washed, then incubated 1 hr at 4°C with lysate expressing a FLAG–Rab in the absence or presence of lysate expressing T7–MICAL-L1; blots with anti-FLAG and anti-T7
[2] = target: T7–MICAL-L1 (mouse) (UniProt Q8BGT6); assay: as above
[3] = target: T7–MICAL-L1 (mouse) (UniProt Q8BGT6); assay: co-IP; HA–MICAL-L1 with T7–MICAL-L1 (Fig. 2F); which copy was precipitated is not told

| Molecule | binding [1] | binding [2] | binding [3] |
| --- | --- | --- | --- |
| FLAG–Rab1A-Q70L (from UniProt P62821 1-205) | no binding |  |  |
| FLAG–Rab8A-Q67L (from UniProt P55258 1-207) |  | binds |  |
| FLAG–Rab8B-Q67L (from UniProt P61028 1-207) |  | binds |  |
| T7–MICAL-L1 (from UniProt Q8BGT6 1-870) | binds |  | binds |
| FLAG–Rab13-Q67L (protein, UniProt Q9DD03 1-202) MAKAYDHLFKLLLIGDSGVGKTCLIIRFAEDNFNSTYISTIGIDFKIRTVDIEGKRIKLQVWDTAGLERFKTITTAYYRGAMGIILVYDITDEKSFENIQNWMKSIKENASAGVERLLLGNKCDMEAKRQVQREQAEKLAREHRIRFFETSAKSSVNVDEAFSSLARDILLKTGGRRSGTNSKPSSTGLKTSDKKKNKCLLG |  | binds |  |
| FLAG–Rab36-Q116L (protein, UniProt Q8CAM5 1-267) MRSSWTPLGPPVSQDRIITSFPKWYTPDACLQLKEHFHSRVSTACQHRNTGTAGLRLSKVVVVGDLYVGKTSLIHRLCKNVFDHDYKATIGVDFEIERFEIAGIPYSLQIWDTAGLEKFKCIASAYYRGAQVIITAFDLTDVQTLEHTRQWLEDVLRENEAGSCFIFLVGTKKDLLSGAACEQAEAEAVHLANEMQAEYWSVSAKTGENVKAFFSRVAALAFEQSVLQDLEKRPSTQSQVGDGDGDLIRIEVPKTQENKRPPGLGCC |  | binds |  |
